Experimental data as given in patent US20170342119A1 (ALTOR BIOSCIENCE, published 2017).

T1: IL-15 βγ receptors on 32Dβ cells (UniProt P14784 27-551; P34902 23-369)
T1 sequence (looked up) 1: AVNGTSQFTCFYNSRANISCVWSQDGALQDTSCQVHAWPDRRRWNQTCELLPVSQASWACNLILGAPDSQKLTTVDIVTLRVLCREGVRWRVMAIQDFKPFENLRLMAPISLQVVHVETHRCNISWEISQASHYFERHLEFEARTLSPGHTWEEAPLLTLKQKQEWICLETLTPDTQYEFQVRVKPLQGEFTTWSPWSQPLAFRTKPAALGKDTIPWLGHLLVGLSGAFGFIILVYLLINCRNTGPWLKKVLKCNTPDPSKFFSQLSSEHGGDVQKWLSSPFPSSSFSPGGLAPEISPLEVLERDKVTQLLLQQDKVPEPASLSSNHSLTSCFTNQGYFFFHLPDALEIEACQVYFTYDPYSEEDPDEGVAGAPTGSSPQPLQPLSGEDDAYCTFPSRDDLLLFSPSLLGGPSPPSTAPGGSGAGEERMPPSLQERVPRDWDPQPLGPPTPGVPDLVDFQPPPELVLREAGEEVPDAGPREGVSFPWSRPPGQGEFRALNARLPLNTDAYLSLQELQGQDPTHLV
T1 sequence (looked up) 2: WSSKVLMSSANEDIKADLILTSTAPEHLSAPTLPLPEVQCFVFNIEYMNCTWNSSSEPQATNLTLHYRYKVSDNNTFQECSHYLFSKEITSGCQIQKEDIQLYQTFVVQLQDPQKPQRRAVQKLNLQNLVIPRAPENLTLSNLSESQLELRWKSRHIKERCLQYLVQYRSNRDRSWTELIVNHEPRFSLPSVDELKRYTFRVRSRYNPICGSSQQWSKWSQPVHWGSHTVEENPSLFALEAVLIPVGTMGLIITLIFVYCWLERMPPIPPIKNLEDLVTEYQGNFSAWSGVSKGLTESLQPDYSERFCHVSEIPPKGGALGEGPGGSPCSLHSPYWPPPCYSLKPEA


Target: T1, IL-15 βγ receptors on 32Dβ cells
Experiment: cell-based or functional assay

| 32Dβ cell proliferation (WST-1), EC50 [nM] | Binder | relative IL-15 activity compared to ALT-803 [fold] |
| --- | --- | --- |
| 0.014 | ALT-803 (IL-15N72D:IL-15RαSuFc complex) (Fc fusion) chain 1: [about 120 residues omitted] chain 2: ITCPPPMSVEHADIWVKSYSLYSRERYICNSGFKRKAGTSSLTECVLNKATNVAHWTTPSLKCIR[human IgG1 Fc omitted] | – |
| 0.889 | soluble anti-CD20 scAb/huIL-15N72D:anti-CD20 scAb/huIL-15RαSu/huIgG1 Fc complex (Fc fusion) chain 1: QIVLSQSPAILSASPGEKVTMTCRASSSVSYIHWFQQKPGSSPKPWIYATSNLASGVPVRFSGSGSGTSYSLTISRVEAEDAATYYCQQWTSNPPTFGGGTKLEIKSGGGGSGGGGSGGGGSQVQLQQPGAELVKPGASVKMSCKASGYTFTSYNMHWVKQTPGRGLEWIGAIYPGNGDTSYNQKFKGKATLTADKSSSTAYMQLSSLTSEDSAVYYCARSTYYGGDWYFNVWGAGTTVTVSA[about 120 residues omitted] chain 2: QIVLSQSPAILSASPGEKVTMTCRASSSVSYIHWFQQKPGSSPKPWIYATSNLASGVPVRFSGSGSGTSYSLTISRVEAEDAATYYCQQWTSNPPTFGGGTKLEIKSGGGGSGGGGSGGGGSQVQLQQPGAELVKPGASVKMSCKASGYTFTSYNMHWVKQTPGRGLEWIGAIYPGNGDTSYNQKFKGKATLTADKSSSTAYMQLSSLTSEDSAVYYCARSTYYGGDWYFNVWGAGTTVTVSAITCPPPMSVEHADIWVKSYSLYSRERYICNSGFKRKAGTSSLTECVLNKATNVAHWTTPSLKCIR[human IgG1 Fc omitted] | ~60 |
